Among all 360,000 compounds or so, about 660 (0.18%) were called active. Inconclusive means that the source gave no clear call. Such entries were picked first, then a sample of the others. The call rests on the fitted dose curve; in most records, active means well fitted inhibition curve with a large enough effect; inconclusive means small, poorly fitted or top-dose-only effect; inactive means no such curve, though single readings can be large or run the other way. No potency is given beside an inconclusive call; the fits are too rough.
These molecules were tested against Rap guanine nucleotide exchange factor 4 (Homo sapiens) (UniProt Q8WZA2) (assay: qHTS for Antagonist of cAMP-regulated guanine nucleotide exchange factor 2 (EPAC2): primary screen). Settings: EPAC2 GEF exchange of Rap1B-BODIPY-GDP, fluorescence; activity, negative = inhibition: at 114 µM (top of the series) unless noted.
UniProt Q8WZA2, sequence (Q8WZA2 whole entry, looked up): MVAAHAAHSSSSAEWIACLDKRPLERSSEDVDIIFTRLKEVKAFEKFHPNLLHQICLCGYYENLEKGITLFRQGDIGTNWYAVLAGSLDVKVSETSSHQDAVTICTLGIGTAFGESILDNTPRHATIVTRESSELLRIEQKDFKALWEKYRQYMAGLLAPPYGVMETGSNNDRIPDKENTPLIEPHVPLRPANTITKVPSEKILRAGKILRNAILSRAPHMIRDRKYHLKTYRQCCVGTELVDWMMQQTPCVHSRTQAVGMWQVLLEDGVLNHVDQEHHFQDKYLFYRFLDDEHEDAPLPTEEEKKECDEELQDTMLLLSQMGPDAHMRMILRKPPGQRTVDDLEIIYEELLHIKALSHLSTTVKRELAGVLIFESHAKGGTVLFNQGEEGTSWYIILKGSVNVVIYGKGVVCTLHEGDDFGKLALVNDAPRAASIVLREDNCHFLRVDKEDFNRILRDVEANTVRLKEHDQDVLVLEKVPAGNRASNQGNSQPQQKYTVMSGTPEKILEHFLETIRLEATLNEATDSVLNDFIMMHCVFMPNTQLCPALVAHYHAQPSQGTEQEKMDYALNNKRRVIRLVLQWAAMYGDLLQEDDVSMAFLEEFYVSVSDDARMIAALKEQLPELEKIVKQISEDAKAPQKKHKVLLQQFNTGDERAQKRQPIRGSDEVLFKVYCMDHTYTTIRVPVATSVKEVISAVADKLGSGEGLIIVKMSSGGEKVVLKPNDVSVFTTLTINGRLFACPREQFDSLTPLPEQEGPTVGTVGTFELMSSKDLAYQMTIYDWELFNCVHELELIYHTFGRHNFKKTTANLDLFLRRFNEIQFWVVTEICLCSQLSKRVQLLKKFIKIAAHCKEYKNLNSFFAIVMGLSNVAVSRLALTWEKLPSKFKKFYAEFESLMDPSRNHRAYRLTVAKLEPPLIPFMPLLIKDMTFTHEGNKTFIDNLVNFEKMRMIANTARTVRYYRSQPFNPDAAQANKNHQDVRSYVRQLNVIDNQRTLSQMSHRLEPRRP
In the case of `O=C(c1ccco1)N1CCN(C(=O)c2ccco2)CC1`, the “activity, negative = inhibition” value is reported as inactive: 3.82%.
For `CCOC(=O)C(Cc1ccc(Cl)cc1Cl)c1ccno1` (stereo unspecified), the Potency was inconclusive [inhibitor, partial curve].
`Cc1cccc(-c2nnc(NC(=O)c3ccco3)s2)c1` was tested, and the “activity, negative = inhibition” value was inactive: 16.8%.
With `Cc1ccc(Cl)cc1NC(=S)N(CCCN1CCOCC1)Cc1ccco1` the Potency was inconclusive [inhibitor, full curve, poor fit].
In the case of `OC[C@@H]1[C@@H](c2ccc(F)cc2)C(c2ccccc2)=NN1c1ccccc1`, the Potency is reported as inconclusive [inhibitor, single point].
For `CCc1nc2c(OCc3ccc(F)cc3)cccn2c1N(C)C(=O)c1ccc(C)cc1`, the Potency was inconclusive [inhibitor, full curve].
With `CC(=O)NC(c1cccc(F)c1)c1nc(-c2cc(F)cc(Cl)c2)cs1` (stereo unspecified) the Potency was inconclusive [inhibitor, full curve, poor fit].
`CCCc1nc2c(ccc3ccccc32)cc1CC` was tested, and the Potency was inconclusive [inhibitor, partial curve, poor fit].
With `COc1ccc(OCC(=O)Nc2ccccc2N2CCCCC2)cc1` the Potency was inconclusive [inhibitor, partial curve].
In the case of `CN(Cc1c(F)cccc1Cl)S(=O)(=O)c1cccs1`, the Potency is reported as inconclusive [inhibitor, partial curve].
For `CCCc1cc(CN(C)C(=O)c2ccc(OC3CCN(C(C)=O)CC3)c(OC)c2)[nH]n1`, the activity, negative = inhibition was inconclusive: -12% [inhibitor].
With `Clc1ccc(N=c2ssnc2Cl)cc1` the “activity, negative = inhibition” value was inactive: 6.44%.
For `COc1ccc(CN(C)CC(O)COc2ccc(C(=O)c3ccccc3)cc2)c(OC)c1OC` (stereo unspecified), the “activity, negative = inhibition” value was inactive: -3.8%.
With `CCOC(=O)c1cnn(-c2nc(-c3ccccc3)cs2)c1C(F)(F)F` the Potency was inconclusive [inhibitor, single point].
For `CC(C)CCn1c(O)c(N=Nc2ccccn2)c2ccccc21`, the “activity, negative = inhibition” value was inactive: -5.17%.
For `Cc1nc2c3ccccc3n(Cc3ccccc3F)c2s1`, the Potency was inconclusive [inhibitor, full curve, poor fit].
For `CN1C2=CC=CC=CC2=[N+](C)C12C=CC(=[N+]([O-])[O-])C=C2[N+](=O)[O-]` (stereo unspecified), the Potency was inconclusive [inhibitor, partial curve].
`O=C1CCCCCC[C@@H](O)[C@H](O)C[C@H](c2ccccc2)O1` was tested, and the “activity, negative = inhibition” value was inactive: 5.95%.
With `O=C(Oc1cccc([N+](=O)[O-])c1)c1ccc2c(=O)n3c(nc2c1)CCC3` the “activity, negative = inhibition” value was inactive: -12.2%.
For `CCC(=O)NC(c1cccs1)c1ccc2cccnc2c1O` (stereo unspecified), the Potency was inconclusive [inhibitor, full curve].
`CCOC(=O)C1CCCN(c2c(C(=O)c3ccccc3)cnc3ccc(OC)cc23)C1` (stereo unspecified) was tested, and the Potency was inconclusive [inhibitor, partial curve].
For `CCCCN1C(N)=NC[C@H]1Cc1ccc(O)cc1`, the “activity, negative = inhibition” value was inactive: 5.85%.
With `O=C(CN1C(=O)NC2(CCCC2)C1=O)Nc1nc2ccccc2[nH]1` the “activity, negative = inhibition” value was inactive: 1.96%.
With `C#CCOCCOCCOCCNc1nc(N2CCN(C(=O)CCCCCCCCCCNC(=O)[C@H](CCCCN)n3cc(C[C@@H](C)CC)nn3)CC2)nc(N2CCN(C(=O)CCCCCCCCCCNC(=O)[C@@H]([C@H](C)O)n3cc(C)nn3)CC2)n1` the Potency was inconclusive [inhibitor, partial curve].
`CC1=C(C(=O)OCc2ccccc2)C(c2ccc(Cl)cc2Cl)NC(=O)N1CCCCCC(=O)O` (stereo unspecified) was tested, and the Potency was inconclusive [inhibitor, partial curve].
In the case of `C[C@@H]1CN([C@H](C)CO)C(=O)c2cc(Br)cnc2O[C@@H]1CN(C)C(=O)Nc1ccccc1`, the “activity, negative = inhibition” value is reported as inactive: 0.662%.
For `Cc1cc(OCC(=O)N2CCC(O)CC2)c2c(C)cc(=O)oc2c1`, the “activity, negative = inhibition” value was inactive: 3.24%.
For `CC1(C)C(=O)Nc2ccccc2N1C(=O)COC(=O)c1cc([N+](=O)[O-])ccc1N`, the activity, negative = inhibition was inconclusive: -3.42% [inhibitor].
With `Oc1ccc(N=Cc2ccc(-c3cccs3)s2)cc1` the Potency was inconclusive [inhibitor, partial curve].
In the case of `CC(=O)c1cccc(N(C(=O)CNC(=O)c2ccco2)C(C(=O)NC2CCCC2)c2ccncc2)c1` (stereo unspecified), the “activity, negative = inhibition” value is reported as inactive: 25.4%.
With `COc1ccc(CCNS(=O)(=O)c2cc3c4c(c2)CCN4C(=O)CC3)cc1` the “activity, negative = inhibition” value was inactive: 0.823%.
With `CCOC(=O)C1(C)CCN1C(=O)/C=C/c1ccccc1` (stereo unspecified) the “activity, negative = inhibition” value was inactive: 2.82%.
For `C#CCN1C(=O)S/C(=C\c2ccc(-c3ccc(C(=O)O)cc3C)o2)C1=O`, the “activity, negative = inhibition” value was inactive: -10.1%.
In the case of `CC(C)c1ccc(NC(=O)COC(=O)C2=COCCO2)cc1`, the Potency is reported as inconclusive [inhibitor, single point].
For `Oc1ccc(/C=N/N=C/c2ccc(O)c(O)c2)cc1O`, the “activity, negative = inhibition” value was inactive: 8.18%.
`CCN(C(=O)CN1C(=O)COc2ccc(S(=O)(=O)N3CCCCCC3)cc21)c1cccc(C)c1` was tested, and the Potency was inconclusive [inhibitor, partial curve].
With `Cc1cc(C)c2nc(C)cc(Nc3ccc(C(=O)NCCO)cc3)c2c1` the Potency was active: 20 µM.
`COc1cc(C(=O)c2ccccc2Cl)c([N+](=O)[O-])cc1OC` was tested, and the Potency was inconclusive [inhibitor, partial curve].
With `CC(=O)Nc1ccc(NC(=O)CN(C)S(=O)(=O)c2ccc3ccccc3c2)cc1` the “activity, negative = inhibition” value was inactive: 11.4%.
`CCOc1ccc(N=C(/C(C(=O)C(=O)N2CCOCC2)=C(\O)c2ccccc2)c2ccccc2)cc1` was tested, and the “activity, negative = inhibition” value was inactive: 5.89%.
In the case of `CCOC(=O)c1ccc(N2C(=O)CC(C(=O)OC)=C2C)cc1`, the “activity, negative = inhibition” value is reported as inactive: -1.33%.
`COc1cc([N+](=O)[O-])ccc1-c1ccc(/C=C2\C(=O)ON=C2c2ccccc2)o1` was tested, and the Potency was active: 50.1 µM.
For `Cn1nccc1C(=O)NC(=S)Nc1cc(Cl)cc(Cl)c1`, the Potency was inconclusive [inhibitor, partial curve].
For `NC(=O)c1ccsc1NC(=O)COC(=O)/C=C/c1ccc([N+](=O)[O-])cc1`, the “activity, negative = inhibition” value was inactive: -2.22%.
In the case of `Clc1ccc(-n2cnnn2)cc1`, the “activity, negative = inhibition” value is reported as inactive: -11.5%.
For `Cc1cc(Cl)ccc1Oc1ccccc1C(=O)CC#N`, the Potency was inconclusive [inhibitor, partial curve].
In the case of `CCN1C(N(C)C)=NC[C@@H]1Cc1ccccc1`, the “activity, negative = inhibition” value is reported as inactive: 1.23%.
`N#Cc1c(NC(=O)c2ccccc2Cl)n(Cc2ccccc2)c2nc3ccccc3nc12` was tested, and the Potency was active: 44.7 µM.
In the case of `CCCCCCCCC1CC(C(=O)Nc2ccccc2)C(=O)O1` (stereo unspecified), the Potency is reported as inconclusive [inhibitor, partial curve].
In the case of `CCc1c(C)c(C#N)c2[nH]c3ccccc3n2c1=S`, the Potency is reported as inconclusive [inhibitor, partial curve].
In the case of `CC1(c2ccc(OC(F)F)cc2)NC(=O)N(CC(=O)NCCC2=CCCCC2)C1=O` (stereo unspecified), the “activity, negative = inhibition” value is reported as inactive: -8.71%.
In the case of `Cc1oc2c(c1C(=O)c1ccccc1)C(=O)C(=O)c1ccccc1-2`, the Potency is reported as inconclusive [inhibitor, single point].
`COc1ccc(-n2cnc3scc(-c4ccc(OC)c(OC)c4)c3c2=O)cc1` was tested, and the Potency was inconclusive [inhibitor, partial curve].
In the case of `Oc1ccc(-c2nc(-c3ccc(O)c(O)c3)cs2)cc1`, the Potency is reported as inconclusive [inhibitor, partial curve].
With `Cc1cc(NC(=S)N(CCN2CCCCC2)Cc2ccco2)ccc1Cl` the Potency was inconclusive [inhibitor, single point].
For `Cc1ccc(-c2cc([C@H]3[C@@H]4C=CCC[C@@]4(C)C(=O)N3Cc3ccccc3)ccc2F)cc1`, the Potency was inconclusive [inhibitor, single point].
`COc1ccc(-c2c(-c3ccccc3OC)sc3ccccc23)cc1` was tested, and the Potency was inconclusive [inhibitor, full curve].
In the case of `CCOC(=O)c1c(C)oc2ccc(OC(=O)c3cccs3)cc12`, the Potency is reported as inconclusive [inhibitor, full curve].
With `Cc1cc(C(=O)CSc2nc3ccc(Cl)cc3[nH]2)c(C)n1Cc1ccco1` the Potency was inconclusive [inhibitor, single point].
`CC(C)Cn1c(SC(C)C(=O)NCC2CCCO2)nc2ccc(Cl)cc2c1=O` (stereo unspecified) was tested, and the Potency was inconclusive [inhibitor, full curve].
For `C=C(C)COc1ccc(-c2nc(N)ncc2-c2ccccc2OC)c(O)c1`, the Potency was inconclusive [inhibitor, partial curve].
For `CCCCC[C@H](C)N1C[C@H](COCc2ccccc2)Oc2cc(N3CC[C@H](N(C)C)C3)ccc2S1(=O)=O`, the Potency was inconclusive [inhibitor, full curve, poor fit].
For `O=C(CSc1nnc(-c2ccco2)n1Cc1ccccc1)NC(=O)NCc1ccccc1`, the “activity, negative = inhibition” value was inactive: 1.47%.
In the case of `COc1ccc(CN(C)C(=O)C23CC4CC(CC(C4)C2)C3)c(OC)c1`, the Potency is reported as inconclusive [inhibitor, partial curve].
With `CCN1CCN(c2nnc(-c3ccc(F)cc3)c3ccccc23)CC1` the Potency was inconclusive [inhibitor, single point].
`COCC(O)Cn1ccnc1[N+](=O)[O-]` (stereo unspecified) was tested, and the “activity, negative = inhibition” value was inactive: 2.7%.
For `CCOc1ccccc1Cn1c(=O)oc2ccc(C)cc21`, the Potency was inconclusive [inhibitor, full curve].
For `O=C(Nc1ccccc1)N1CCCc2ccccc21`, the Potency was inconclusive [inhibitor, single point].
`CC(C)[C@H](NC(=O)C1(c2ccccc2)CCN(C(=O)OC(C)(C)C)CC1)C(=O)O` was tested, and the Potency was inconclusive [inhibitor, partial curve].
`Cc1cc([N+](=O)[O-])c2[nH]c(C(=O)N/N=C/c3ccccc3C(=O)O)c(-c3ccccc3)c2c1` was tested, and the Potency was inconclusive [inhibitor, partial curve].
With `CC(C)(C)NC(=O)C(c1ccc(O)cc1)N(Cc1ccccc1)C(=O)CCC(=O)Nc1nccs1` (stereo unspecified) the “activity, negative = inhibition” value was inactive: 5.02%.

From PubChem BioAssay AID720708 (National Center for Advancing Translational Sciences (NCATS), 2013)
Further: nearly all actives have a fitted effect of over 45% in size.
On the % scale 0 is the no-effect control and ±100 the full control effect; potency means the concentration at half of the fitted maximal effect; tags describe the fitted curve by direction and shape.
